Data as given in paper PMC12136788.
The list shows a part of the results.

B1: chr2:47387936:47387937:-_ENSG00000143933_ENST00000272298|hu_mus|FALSE|FALSE (ssRNA)
RNA: GGGAGUUCUACAGUCCGACGAUCUACAAGAAAUUUAACACAUUCUGUACAAUGUCUUCACUUCGCUGUCAUCAUUUGUACAAACUCUUCGUAGUUUACCUGACCGUCCCCGUCAAUGUCUGCUUCCCUGAUCAUCUCAUCGACCAACAGAGGAUUGAGCAUCA
B2: chr7:30948173:30948174:-_ENSMUSG00000037029_ENSMUST00000062181|mus_mus|motif|central (ssRNA)
RNA: GGGAGUUCUACAGUCCGACGAUCGGAGGACUUCCAACUGUAUAAAGCAGAGGAUGUGUUCCCAUACAACUGUUUAAAUCGGAACGGUGUUUCAAGCUCAAAACUUUAAGCUUUGAACAAUGUUUUGCCUUUUAAAAAUUGAAGCAACAGAGGAUUGAGCAUCA
B3: 105956041_105956161_390_3pUTR_ENSG00000135974_ENST00000258457|human|control|control (ssRNA)
RNA: GGGAGUUCUACAGUCCGACGAUCAUCAUUUUCCCCCAUCUAUUCUUCGGCAAAUCCCUCUGAGGCAAUGGUAUUGCAUGUUGGACAUAAAGGUCAGUAAGACUGUCUUUGUUUACUCUUACAUCAGUUUCAACAGCUAUGUUCCAACAGAGGAUUGAGCAUCA
B4: chr5:134235298:134235299:+_ENSG00000113621_ENST00000507024|hu_hu|FALSE|FALSE (ssRNA)
RNA: GGGAGUUCUACAGUCCGACGAUCUGUCCUGGAAUUAGCCACCGAAUACUCUCAGUUCGAAUGGUAGCAUACAUAAUAAAACUAAUUAAAAAGAAUAAGGAAAAUACAAGCAACCAGUCCACACUUUUUAUCAAAGUGCUGGGACAACAGAGGAUUGAGCAUCA
B5: chr1:163115795:163115796:-_ENSG00000143248_ENST00000313961|hu_hu|FALSE|FALSE (ssRNA)
RNA: GGGAGUUCUACAGUCCGACGAUCGAGUUAAUAUCCUCAUCUCGAUUACCCUCAUACAUGGCUUAGUUUGAUUCUGUUACUAAAUUCUGUGAAUCAUUAUUUAAUCAAAUCUACUAAAGAUUAGAAAAAAUUCUAGCAAGACUUCAACAGAGGAUUGAGCAUCA
B6: chr11:70698419:70698420:+_ENSMUSG00000020817_ENSMUST00000076270|mus_mus|motif|central (ssRNA)
RNA: GGGAGUUCUACAGUCCGACGAUCUUUCAUUAUAGCCUGAAGUGAAGCAACUUCUUCUCUCCAUUGCCUUUUAACUUCAUCGGUAGCUUCUUGCUUAGUAUUCUCAGAGACUGUGGCAAUUGCCUUAAUGUUCUCCAUCUCUGCCAACAGAGGAUUGAGCAUCA
B7: chr2:75765252:75765253:+_ENSMUSG00000042410_ENSMUST00000047232|mus_mus|FALSE|FALSE (ssRNA)
RNA: GGGAGUUCUACAGUCCGACGAUCAUUUAAAGCAAUUGUUCCACGUAUUUCAAUAUCCAGUUUUGAAUGUAAAAAUGUCUGCUAAAUGUAAUUAACGUUCUCCUUUUUAUUUAAGAAAUAGGAUAUUUCAAACUUGUGAUUAUGCAACAGAGGAUUGAGCAUCA
B8: chr2:46850943:46850944:+_ENSG00000119878_ENST00000238892|hu_hu|motif|central (ssRNA)
RNA: GGGAGUUCUACAGUCCGACGAUCGUAGGCACAGCCCUGGCAGUAAUGAGAACCUGGUUGGUGCACAGAACUUUUACAAAUUCGGCAAGUGGAGAACUUAUUCUUUCCAUAUGGAUCAAAUCUUGCUUUUUUUGAAGUCAAAGCCAACAGAGGAUUGAGCAUCA
B9: chr4:110743517:110743518:+_ENSG00000109534_ENST00000226796|hu_hu|motif|central (ssRNA)
RNA: GGGAGUUCUACAGUCCGACGAUCUUUCUCACCUGGAGGUCGAGGUAAAAACCUCUGCAGUGGCAGCAGCUUAUAUGGGUCGGUAUAAAACUUCUGUAGUUUUUUAAAGGAUGAAGCCUUCAUGUUUUCUGACAACUUAACUGACAACAGAGGAUUGAGCAUCA
B10: chr15:65869917:65869918:+_ENSG00000074696_ENST00000261875|hu_hu|FALSE|FALSE (ssRNA)
RNA: GGGAGUUCUACAGUCCGACGAUCGCCAUUUUUUAUGUUUGUGCACAGCCUUACAGUUUGGAGGUGUGUUUGGCCUACUCUAAUAUUUCUAGUUUGUCAAAGGCUGUACACUGUUACUGCCAGUUUGACCUACAUACUGUGUUCCAACAGAGGAUUGAGCAUCA
B11: chr7:56126341:56126342:+_ENSG00000146731_ENST00000540286|hu_mus|hu_hu_hu_mus_True|8_18 (ssRNA)
RNA: GGGAGUUCUACAGUCCGACGAUCCAUGUUUCUCCUCUUGGCUCUGCGCAGAGCUACGAUCCCUUCUUUCGCAAGGGCAUCUAAGGAAAAGGGGUCAAUCCCCUUUUGAUUAAUAACAACAAAUCCUUUAUCUGAAUCACCACACAACAGAGGAUUGAGCAUCA
B12: 106644022_106644142_2584_ncRNA_ENSMUSG00000020719_ENSMUST00000133426|mouse|control|control (ssRNA)
RNA: GGGAGUUCUACAGUCCGACGAUCGUGUGGCAAAAUAGCAAUGUACGGAGUUUUGCACACCACAACAGCCAGACCAAAAAUAAAAAGUUAGACAAUUGUAUUCCCAAGAAGGUACGGGCUGAAAAAAAUACAGUUAAAAUGGUUCAACAGAGGAUUGAGCAUCA
B13: chr2:42509997:42509998:+_ENSG00000143924_ENST00000318522|hu_mus|hu_hu_hu_mus_True|38_78 (ssRNA)
RNA: GGGAGUUCUACAGUCCGACGAUCUCGCUGAGUCCUCUCCUCAUAAUUAAACAGGACUACUACUGAUGCGAUAAAAUAAACUAUCUCCCCUGUGGGAAGAAGGUAAACAUUCGCUCUACAGUCCUUUCCUCGAUAACCGUAUACCAACAGAGGAUUGAGCAUCA
B14: chr12:42180722:42180723:-_ENSMUSG00000036295_ENSMUST00000043884|mus_hu|mus_mus_mus_hu_True|18_38 (ssRNA)
RNA: GGGAGUUCUACAGUCCGACGAUCCUGUAGGAGAAGAAUCUGUGUGUUAGCUGGCAAUCUGGCUGGGAAAGUUAAAAGACCUAAAUCAUUACAAUCCACUGUCGAUGCUUCCAUAUAGAUGGAUCUCGGUGUAAACCAAGGCCUCAACAGAGGAUUGAGCAUCA
B15: chr18:67943652:67943653:+_ENSMUSG00000079614_ENSMUST00000025421|mus_hu|FALSE|FALSE (ssRNA)
RNA: GGGAGUUCUACAGUCCGACGAUCAGUUGUCCUUUUAACCCAGUGGCUCUGUCCUCGCAGUUUAUCAUUUGAUUCUCCUACUAUUUCUUCCCAUACAGCAGCUGUUCGGUCAAAAGAACAGGAAGCCAAAACCUGCCCAAAUUCCAACAGAGGAUUGAGCAUCA
B16: chr17:46973061:46973062:+_ENSG00000159199_ENST00000355938|hu_hu|FALSE|FALSE (ssRNA)
RNA: GGGAGUUCUACAGUCCGACGAUCGAGGAUGAGGAAGGCGACCAUCAAACAGAAAAGCCCCAUGGCCUCAGACAGGGCAAAGCCAAGAAUGGCAUAGGAGAAGAGCUGCUGCUUGAGAGACGGGUUCCUGGCAUAGCCAAUGAUCAACAGAGGAUUGAGCAUCA
B17: chr14:89338683:89338684:+_ENSG00000165533_ENST00000346301|hu_hu|hu_hu_hu_mus_False|58_98 (ssRNA)
RNA: GGGAGUUCUACAGUCCGACGAUCGUGGUUGUUGUGGACCAGAGCCAGCCUGAAGCAUUGGUGGGCCAAGUUUGUAUCUCCUAUUCCCACAGCUAUGUGCCCCAGGUUGUACCAGACAUCAGCUGCCUCUUCUUCAUUUUCAGCCAACAGAGGAUUGAGCAUCA
B18: chr6:113465898:113465899:-_ENSMUSG00000030286_ENSMUST00000032425|mus_hu|FALSE|FALSE (ssRNA)
RNA: GGGAGUUCUACAGUCCGACGAUCAUCCUCCUUUUUAUUUCAAGAGGUGCCAGCUCCAAACAAAGUUACAAGGUUAAGUGCAACUCCAAGUUCCUGACACAGCUAAUCCCUGCUCGGUCUUCAAAAAAUAGAGGUCUGUAAUUCCAACAGAGGAUUGAGCAUCA
B19: chr7:44244176:44244177:+_ENSG00000106636_ENST00000223369|hu_mus|hu_hu_hu_mus_False|78_78 (ssRNA)
RNA: GGGAGUUCUACAGUCCGACGAUCACUGUCGCUCCGGACGUAGACAUGGCAAAGAUAGUCUUGUUCUUUGACAGAAGCUCUGCUGCCUUUCCCCGAGCGUUCCACAAUCAGUUGACUUGUAAAGGUCAUGAAUUCCUGCACACUCAACAGAGGAUUGAGCAUCA
B20: chr1:226549179:226549180:-_ENSG00000143799_ENST00000366794|hu_hu|FALSE|FALSE (ssRNA)
RNA: GGGAGUUCUACAGUCCGACGAUCCAGAGCCACCGGGUGUGACUCGGCUACCUCUCCCAAUUACCACAGGGAGGUCUUAAAAUUGAAUUUCAGUUUCAGCAGAUACUUCAGAUUUACCUGAGCAAUAUCAUAGACAAUGUACUCCAACAGAGGAUUGAGCAUCA
B21: chr2:216983849:216983850:+_ENSG00000079246_ENST00000392132|hu_hu|motif|central (ssRNA)
RNA: GGGAGUUCUACAGUCCGACGAUCCUUGCCAAGUGAGAAAGGCAAGAAGAAUUGCAGGGAGAUGUCACAUUUCUUCAAGCGGUGAAUUAUAAUAUCCAGCUGACUUUUGCUGAAUCGGCUGCUGAGGUCAGUGAAUAUUUCAAUCAACAGAGGAUUGAGCAUCA
B22: chr2:153237265:153237266:-_ENSMUSG00000061411_ENSMUST00000109784|mus_mus|mus_mus_mus_hu_False|18_108 (ssRNA)
RNA: GGGAGUUCUACAGUCCGACGAUCAAAAAAAAGAAAAAAAAAGUGUCCUUGUGCCCAAAGUCUCAGGUGCUUGGAGUGUGGCUAGAAACAGCUCUUUUGGAUCCCACCUCUUUCAAAAAACAGUGUAACCAACUGGUGAGGCAGCAACAGAGGAUUGAGCAUCA

What follows are binders tested against T1, UNK ZnF1-3 (human, UniProt Q9C0B0 31-174) (assay: nsRBNS (natural sequence RNA bind-n-seq); RBNS binding buffer (assumed for nsRBNS): 25 mM Tris pH 7.5, 150 mM KCl, 3 mM MgCl2, 0.01% Triton X-100, 500 ug/ml BSA, 20 U/ml SUPERase-In, 4 C; UNK is unkempt and MSI1 is Musashi-1; names of the RNAs are library labels; protein concentration not given here; high values mean tight binding).
T1 sequence: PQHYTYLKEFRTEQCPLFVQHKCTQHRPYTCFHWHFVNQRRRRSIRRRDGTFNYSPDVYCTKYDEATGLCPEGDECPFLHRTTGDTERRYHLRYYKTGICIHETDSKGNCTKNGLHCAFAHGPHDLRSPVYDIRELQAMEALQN

Binder	binding signal [enrichment R]
B1	0.743
B2	0.859
B3	0.664
B4	3.17
B5	0.817
B6	0.447
B7	0.444
B8	1.2
B9	0.853
B10	0.413
B11	1.06
B12	2.54
B13	0.616
B14	0.967
B15	1.28
B16	1.5
B17	0.682
B18	1.42
B19	0.819
B20	0.801
B21	0.627
B22	2.14
